This is one part of the list. The list includes weakly bound sequences.
Target: T1, MBP-FoxP3dN (UniProt Q99JB6)
T1 sequence: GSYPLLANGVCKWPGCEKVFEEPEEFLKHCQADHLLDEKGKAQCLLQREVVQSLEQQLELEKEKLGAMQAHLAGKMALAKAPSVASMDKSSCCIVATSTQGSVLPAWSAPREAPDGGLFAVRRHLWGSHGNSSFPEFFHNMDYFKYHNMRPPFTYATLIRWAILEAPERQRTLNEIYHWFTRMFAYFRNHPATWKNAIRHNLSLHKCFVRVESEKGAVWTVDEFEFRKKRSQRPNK
Assay: PD-seq (MBP pull-down with sequencing)
Details: 20 mM Tris-HCl pH 7.5, 100 mM NaCl, 1.5 mM MgCl2, 0.4 uM protein, 0.1 uM dsDNA library, 30 min, room temperature, amylose pull-down; high values mean tight binding; double strand, one strand shown

Row | Sequence | binding signal (RPM ratio (pull-down/input))
1 | GATGATTGTTCTCCCAGCTGATGAATTTTGAGGATCGAGTAAACAAATTTTCCTAATCTTTCTGTTCAAGCGCCATCTAC | 0.327
2 | GATGATTGTTCTCCCAGCTGATGAATTGGTGTTGTCGAGTAAACAAATTTTCCTAATCTTTCTGTTCAAGCGCCATCTAC | 3.18
3 | GATGATTGTTCTCCCAGCTGATGAATTAATGGCTTCGAGTAAACAAATTTTCCTAATCTTTCTGTTCAAGCGCCATCTAC | 0.514
4 | GATGATTGTTCTCCCAGCTGATGAATTTGTAGCTTCGAGTAAACAAATTTTCCTAATCTTTCTGTTCAAGCGCCATCTAC | 4.01
5 | GATGATTGTTCTCCCAGCTGATGAATTCAGGCTTTCGAGTAAACAAATTTTCCTAATCTTTCTGTTCAAGCGCCATCTAC | 0.709
6 | GATGATTGTTCTCCCAGCTGATGAATTCGCCGCCTCGAGTAAACAAATTTTCCTAATCTTTCTGTTCAAGCGCCATCTAC | 0.621
7 | GATGATTGTTCTCCCAGCTGATGAATTAGAATGTTCGAGTAAACAAATTTTCCTAATCTTTCTGTTCAAGCGCCATCTAC | 0.671
8 | GATGATTGTTCTCCCAGCTGATGAATTGGACACGTCGAGTAAACAAATTTTCCTAATCTTTCTGTTCAAGCGCCATCTAC | 0.371
9 | GATGATTGTTCTCCCAGCTGATGAATTGAACTGTTCGAGTAAACAAATTTTCCTAATCTTTCTGTTCAAGCGCCATCTAC | 0.372
10 | GATGATTGTTCTCCCAGCTGATGAATTGTGAATATCGAGTAAACAAATTTTCCTAATCTTTCTGTTCAAGCGCCATCTAC | 0.91
11 | GATGATTGTTCTCCCAGCTGATGAATTCACTTGCTCGAGTAAACAAATTTTCCTAATCTTTCTGTTCAAGCGCCATCTAC | 0.587
12 | GATGATTGTTCTCCCAGCTGATGAATTCTGCGACTCGAGTAAACAAATTTTCCTAATCTTTCTGTTCAAGCGCCATCTAC | 2.57
13 | GATGATTGTTCTCCCAGCTGATGAATTGTAAACGTCGAGTAAACAAATTTTCCTAATCTTTCTGTTCAAGCGCCATCTAC | 0.874
14 | GATGATTGTTCTCCCAGCTGATGAATTGCTTATATCGAGTAAACAAATTTTCCTAATCTTTCTGTTCAAGCGCCATCTAC | 1.61
15 | GATGATTGTTCTCCCAGCTGATGAATTCGAACTATCGAGTAAACAAATTTTCCTAATCTTTCTGTTCAAGCGCCATCTAC | 0.371
16 | GATGATTGTTCTCCCAGCTGATGAATTACTACTCTCGAGTAAACAAATTTTCCTAATCTTTCTGTTCAAGCGCCATCTAC | 0.421
17 | GATGATTGTTCTCCCAGCTGATGAATTTTCGCAGTCGAGTAAACAAATTTTCCTAATCTTTCTGTTCAAGCGCCATCTAC | 0.491
18 | GATGATTGTTCTCCCAGCTGATGAATTACTCATATCGAGTAAACAAATTTTCCTAATCTTTCTGTTCAAGCGCCATCTAC | 0.57

Reference: paper PMC12820563
